Data published in patent publication US20230071889A1.

T1: CD127 recombinant protein (Histidine tagged, Sino ref 10975-H08H) (UniProt P16871)
T1 sequence (looked up): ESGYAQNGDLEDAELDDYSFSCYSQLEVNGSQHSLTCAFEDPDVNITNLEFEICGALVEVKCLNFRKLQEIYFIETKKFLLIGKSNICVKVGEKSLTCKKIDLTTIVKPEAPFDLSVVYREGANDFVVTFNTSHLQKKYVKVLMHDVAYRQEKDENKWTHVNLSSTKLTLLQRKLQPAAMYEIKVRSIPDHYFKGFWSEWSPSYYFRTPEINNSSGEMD

T2: CD127 (Sinobiological, 10975-H03H-50) (UniProt P16871)
T2 sequence (looked up): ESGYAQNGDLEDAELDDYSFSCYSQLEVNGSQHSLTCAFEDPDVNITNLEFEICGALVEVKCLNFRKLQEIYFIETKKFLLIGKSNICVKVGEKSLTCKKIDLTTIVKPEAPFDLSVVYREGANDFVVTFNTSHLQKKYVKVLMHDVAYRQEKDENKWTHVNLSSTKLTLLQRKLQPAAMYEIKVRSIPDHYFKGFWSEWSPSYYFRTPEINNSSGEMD

T3: CD132 receptor (Sinobiological 10555-H08B) (UniProt P31785)
T3 sequence (looked up): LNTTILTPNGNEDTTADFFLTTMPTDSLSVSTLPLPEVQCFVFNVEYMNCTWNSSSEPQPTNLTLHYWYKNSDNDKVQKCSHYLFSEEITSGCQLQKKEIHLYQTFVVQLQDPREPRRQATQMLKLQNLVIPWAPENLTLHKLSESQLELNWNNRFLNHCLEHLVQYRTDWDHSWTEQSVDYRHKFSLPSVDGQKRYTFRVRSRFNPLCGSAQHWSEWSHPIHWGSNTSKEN


Columns and labels:
[1] = target: IL-7 receptor (IL-7R) on human PBMCs / T cells (human) (UniProt P16871); assay: cell-based or functional assay
[2] = target: T1, CD127 recombinant protein (Histidine tagged, Sino ref 10975-H08H); assay: CD127 binding sandwich ELISA: PD-1 coated, bifunctional molecule pre-incubated with His-tagged CD127, anti-His detection
[3] = target: T2, CD127 (Sinobiological, 10975-H03H-50); assay: Biacore, CD127 immobilised on CM5 chip; two-state reaction model
[4] = target: T3, CD132 receptor (Sinobiological 10555-H08B); assay: Biacore, CD132 injected over the complex CD127 + IgG fused IL-7 (30 nM); steady-state model
[5] = target: recombinant human PD-1 (Example 2) (human) (UniProt Q15116); assay: competition ELISA: PD-L1 coated, antibody mixed with biotinylated PD-1 at 0.6 ug/mL, streptavidin peroxidase; blocked ligand PD-L1
Sequence of UniProt Q15116 (Q15116 25-167 limits assumed): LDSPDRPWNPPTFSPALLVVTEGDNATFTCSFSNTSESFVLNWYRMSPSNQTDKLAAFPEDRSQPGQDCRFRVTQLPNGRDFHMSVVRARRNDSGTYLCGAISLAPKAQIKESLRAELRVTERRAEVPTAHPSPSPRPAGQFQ

Binder | pSTAT5 signal in human PBMC T cells, EC50 [1] [ng/mL] | EC50 [2] [µg/mL] | pSTAT5 signal in human PBMC T cells, EC50 (second experiment, other donor) [1] [ng/mL] | Kd [3] [nM] | Kd2 [3] [s⁻¹] | kon [3] [M⁻¹ s⁻¹] | Kd [4] [nM] | IC50 (read off the curve) [5] [nM]
IgG4 G4S3 IL7 W142F (protein, part only; not given: anti-PD-1 variable domains and light chain, part only) heavy, part: ASTKGPSVFPLAPCSRSTSESTAALGCLVKDYFPEPVTVSWNSGALTSGVHTFPAVLQSSGLYSLSSVVTVPSSSLGTKTYTCNVDHKPSNTKVDKRV[here human IgG4 Fc with S228P L445P (EU numbers) without letters]GGGGSGGGGSGGGGSDCDIEGKDGKQYESVLMVSIDQLLDSMKEIGSNCLNNEFNFFKRHICDANKEGMFLFRAARKLRQFLKMNSTGDFDLHLLKVSEGTTILLNCTGQVKGRKPAALGEAQPTKSLEENKSLKEQKKLNDLCFLKRLLQEIKTCFNKILMGTKEH | 102 | 0.0349 | – | – | – | – | – | –
IGG4 G4S3 IL7 W142Y (protein, part only; not given: anti-PD-1 variable domains and light chain, part only) heavy, part: ASTKGPSVFPLAPCSRSTSESTAALGCLVKDYFPEPVTVSWNSGALTSGVHTFPAVLQSSGLYSLSSVVTVPSSSLGTKTYTCNVDHKPSNTKVDKRV[here human IgG4 Fc with S228P L445P (EU numbers) without letters]GGGGSGGGGSGGGGSDCDIEGKDGKQYESVLMVSIDQLLDSMKEIGSNCLNNEFNFFKRHICDANKEGMFLFRAARKLRQFLKMNSTGDFDLHLLKVSEGTTILLNCTGQVKGRKPAALGEAQPTKSLEENKSLKEQKKLNDLCFLKRLLQEIKTCYNKILMGTKEH | 208 | 0.0446 | – | – | – | – | – | –
IgG4 G4S3 IL7 WT (protein, from a related filing, part only) heavy: QIQLVQSGSELKKPGASVKVSCKASGYTFTHYAMNWVRQAPGQGLEWMGWINTNTGEPTYAQGFTGRFVFSLDTSVSTAYLQISSLKAEDTAVYYCAREREPGMDNWGQGTLVTVSSASTKGPSVFPLAPCSRSTSESTAALGCLVKDYFPEPVTVSWNSGALTSGVHTFPAVLQSSGLYSLSSVVTVPSSSLGTKTYTCNVDHKPSNTKVDKRV[here human IgG4 Fc with S228P L445P (EU numbers) without letters]GGGGSGGGGSGGGGSDCDIEGKDGKQYESVLMVSIDQLLDSMKEIGSNCLNNEFNFFKRHICDANKEGMFLFRAARKLRQFLKMNSTGDFDLHLLKVSEGTTILLNCTGQVKGRKPAALGEAQPTKSLEENKSLKEQKKLNDLCFLKRLLQEIKTCWNKILMGTKEH light: DVVMTQSPLSLPVTLGQPASISCRSSQSLVHANTNTYLEWYQQRPGQSPRLLIYKVSNRFSGVPDRFSGSGSGTDFTLKISRVEAEDVGVYYCFQGTHVPNTFGQGTKLEIKRTVAAPSVFIFPPSDEQLKSGTASVVCLLNNFYPREAKVQWKVDNALQSGNSQESVTEQDSKDSTYSLSSTLTLSKADYEKHKVYACEVTHQGLSSPVTKSFNRGEC | 76 | 0.0184 | 0.52 | 0.0414 | 0.000122 | 5.76e+06 | 118 | –
IgG4 G4S3 IL7 SS2 (protein, from a related filing, part only) heavy: QIQLVQSGSELKKPGASVKVSCKASGYTFTHYAMNWVRQAPGQGLEWMGWINTNTGEPTYAQGFTGRFVFSLDTSVSTAYLQISSLKAEDTAVYYCAREREPGMDNWGQGTLVTVSSASTKGPSVFPLAPCSRSTSESTAALGCLVKDYFPEPVTVSWNSGALTSGVHTFPAVLQSSGLYSLSSVVTVPSSSLGTKTYTCNVDHKPSNTKVDKRV[here human IgG4 Fc with S228P L445P (EU numbers) without letters]GGGGSGGGGSGGGGSDSDIEGKDGKQYESVLMVSIDQLLDSMKEIGSNCLNNEFNFFKRHISDANKEGMFLFRAARKLRQFLKMNSTGDFDLHLLKVSEGTTILLNSTGQVKGRKPAALGEAQPTKSLEENKSLKEQKKLNDLCFLKRLLQEIKTSWNKILMGTKEH light: DVVMTQSPLSLPVTLGQPASISCRSSQSLVHANTNTYLEWYQQRPGQSPRLLIYKVSNRFSGVPDRFSGSGSGTDFTLKISRVEAEDVGVYYCFQGTHVPNTFGQGTKLEIKRTVAAPSVFIFPPSDEQLKSGTASVVCLLNNFYPREAKVQWKVDNALQSGNSQESVTEQDSKDSTYSLSSTLTLSKADYEKHKVYACEVTHQGLSSPVTKSFNRGEC | – | – | 2400 | 7.22 | 0.00155 | 611000 | 3100 | –
IGG4 G4S3 IL7 SS3 (protein, from a related filing, part only) heavy: QIQLVQSGSELKKPGASVKVSCKASGYTFTHYAMNWVRQAPGQGLEWMGWINTNTGEPTYAQGFTGRFVFSLDTSVSTAYLQISSLKAEDTAVYYCAREREPGMDNWGQGTLVTVSSASTKGPSVFPLAPCSRSTSESTAALGCLVKDYFPEPVTVSWNSGALTSGVHTFPAVLQSSGLYSLSSVVTVPSSSLGTKTYTCNVDHKPSNTKVDKRV[here human IgG4 Fc with S228P L445P (EU numbers) without letters]GGGGSGGGGSGGGGSDCDIEGKDGKQYESVLMVSIDQLLDSMKEIGSNSLNNEFNFFKRHISDANKEGMFLFRAARKLRQFLKMNSTGDFDLHLLKVSEGTTILLNSTGQVKGRKPAALGEAQPTKSLEENKSLKEQKKLNDLSFLKRLLQEIKTCWNKILMGTKEH light: DVVMTQSPLSLPVTLGQPASISCRSSQSLVHANTNTYLEWYQQRPGQSPRLLIYKVSNRFSGVPDRFSGSGSGTDFTLKISRVEAEDVGVYYCFQGTHVPNTFGQGTKLEIKRTVAAPSVFIFPPSDEQLKSGTASVVCLLNNFYPREAKVQWKVDNALQSGNSQESVTEQDSKDSTYSLSSTLTLSKADYEKHKVYACEVTHQGLSSPVTKSFNRGEC | – | – | 4350 | – | 0.000602 | 1960 | – | –
anti-PD1VL-IL7, chimeric form (protein) heavy: QIQLVQSGPELKKPGETVKISCKASGYTFTHYGMNWVKQAPGKGLKWMGWINTNTGEPTYAEEFKGRFAFSLETSASAAFLQINNLKNEDTATYFCAKEREPGMDSWGQGTSVTVSSASTKGPSVFPLAPCSRSTSESTAALGCLVKDYFPEPVTVSWNSGALTSGVHTFPAVLQSSGLYSLSSVVTVPSSSLGTKTYTCNVDHKPSNTKVDKRV[here human IgG4 Fc with S228P L445P (EU numbers) without letters] light: DVLLTQTPLSLPVSLGDQASISCRSSQNIVHANGNTYLEWYLQKPGQSPKLLIYKVSNRFSGVPDRFSGSGSGTDFTLKITRVEAEDLGVYYCFQGSHVPNTFGGGTKLEIKRTVAAPSVFIFPPSDEQLKSGTASVVCLLNNFYPREAKVQWKVDNALQSGNSQESVTEQDSKDSTYSLSSTLTLSKADYEKHKVYACEVTHQGLSSPVTKSFNRGECGGGGSGGGGSGGGGSDCDIEGKDGKQYESVLMVSIDQLLDSMKEIGSNCLNNEFNFFKRHICDANKEGMFLFRAARKLRQFLKMNSTGDFDLHLLKVSEGTTILLNCTGQVKGRKPAALGEAQPTKSLEENKSLKEQKKLNDLCFLKRLLQEIKTCWNKILMGTKEH | – | – | – | – | – | – | – | 5
